The experiment deals with Trichoderma virens ATCC 9645. The experiment is described as follows: growth yield (OD600) with compound + IPBC relative to untreated control; higher = less growth inhibition. Conditions: compound concentration: 100 uM, IPBC concentration: 200 ng/ml. The procedure, abridged: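 A biocide at 200 ng ml^−1 was co-applied to some wells, and library compounds were present in all test wells at 100 μM final. The wells held 100 μl of Trichoderma virens ATCC 9645 spores at 15,000 spores ml^−1 in potato dextrose broth, grown at 30 °C in 96-well plates, with OD600 read at 40 h and 72 h. Results are relative growth against the control without either agent, averaged across duplicate screens.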

Where a name gives a salt, the structure may show the parent alone. ± gives the standard error. About 130 (10%) of roughly 1,300 compounds showed an effect of 50% or more. The entries are a selection whose mix differs from that of the whole data set.

In the case of `C1CCC(C(CC2CCCCN2)C2CCCCC2)CC1` (stereo not given) [Perhexiline maleate] + CCCCNC(=O)OCC#CI [3-iodo-2-propynyl butylcarbamate (IPBC)], the growth yield is 40.981 ± 7.1e-15% (40 h) and 85.27 ± 0.32% (72 h).
The matching figures for `CCc1nc(N)nc(N)c1-c1ccc(Cl)cc1` [Pyrimethamine] + CCCCNC(=O)OCC#CI [3-iodo-2-propynyl butylcarbamate (IPBC)]: 87.84 ± 0.48% and 95.4 ± 2.3%.
The like results for `CC(=O)[C@@]1(O)CC[C@H]2[C@@H]3C[C@H](C)C4=CC(=O)C=C[C@]4(C)[C@@]3(F)[C@@H](O)C[C@@]21C` [Fluorometholone] + CCCCNC(=O)OCC#CI [3-iodo-2-propynyl butylcarbamate (IPBC)] were, in that order, 91.3 ± 9.1% and 88.7 ± 5%.
As to `COc1cc(C(=O)NCc2ccc(OCCN(C)C)cc2)cc(OC)c1OC` [Trimethobenzamide hydrochloride] + CCCCNC(=O)OCC#CI [3-iodo-2-propynyl butylcarbamate (IPBC)], the growth yield (40 h) was found to be 90.2 ± 1.3% and the growth yield (72 h) was determined as 91.3 ± 2.8%.
Turning to `CCOc1nc2cccc(C(=O)OCc3oc(=O)oc3C)c2n1Cc1ccc(-c2ccccc2-c2noc(=O)[nH]2)cc1` [Azilsartan kamedoxomil] + CCCCNC(=O)OCC#CI [3-iodo-2-propynyl butylcarbamate (IPBC)], the growth yield was found to be 110 ± 5.1% (40 h) and 105 ± 2.7% (72 h).
The like results for `Cc1ccc(NC(=O)c2ccc(CN3CCN(C)CC3)cc2)cc1Nc1nccc(-c2cccnc2)n1` [Imatinib] + CCCCNC(=O)OCC#CI [3-iodo-2-propynyl butylcarbamate (IPBC)] were, in that order, 118 ± 7.6% and 115 ± 2.6%.
On to `CCN[C@@H](C)Cc1cccc(C(F)(F)F)c1` [Dexfenfluramine hydrochloride] + CCCCNC(=O)OCC#CI [3-iodo-2-propynyl butylcarbamate (IPBC)], for which the growth yield by setting is: (40 h) 87 ± 1.6%; (72 h) 91.2 ± 1.5%.
The matching figures for `CCOC(=O)O[C@]1(C(=O)OCCl)CC[C@H]2[C@@H]3CCC4=CC(=O)C=C[C@]4(C)[C@H]3[C@@H](O)C[C@@]21C` [Loteprednol etabonate] + CCCCNC(=O)OCC#CI [3-iodo-2-propynyl butylcarbamate (IPBC)]: 98.64 ± 0.16% and 98.1 ± 2%.
The matching figures for `Clc1ccc(C(Cn2ccnc2)OCc2ccsc2Cl)c(Cl)c1` (stereo not given) [Tioconazole] + CCCCNC(=O)OCC#CI [3-iodo-2-propynyl butylcarbamate (IPBC)]: 3.65 ± 0.16% and 2.52%.
`CCCC1C(=O)N2C(N(C)C)=Nc3ccc(C)cc3N2C1=O` (stereo not given) [Azapropazone] + CCCCNC(=O)OCC#CI [3-iodo-2-propynyl butylcarbamate (IPBC)]: the growth yield (40 h) stood at 85.8 ± 9.5% and the growth yield (72 h) was determined as 91.8 ± 3.5%.
As to `C[C@](N)(Cc1ccc(O)c(O)c1)C(=O)O` [Methyldopa (L,-)] + CCCCNC(=O)OCC#CI [3-iodo-2-propynyl butylcarbamate (IPBC)], the growth yield reads like this: (40 h) 91.5 ± 2.5%; (72 h) 96.4 ± 2.4%.
The matching figures for `c1cnc(N2CCN(Cc3ccc4c(c3)OCO4)CC2)nc1` [Piribedil hydrochloride] + CCCCNC(=O)OCC#CI [3-iodo-2-propynyl butylcarbamate (IPBC)]: 116 ± 13% and 108 ± 9.8%.
The like results for `C[C@H]1c2cccc(O)c2C(=O)C2=C(O)[C@]3(O)C(=O)C(C(N)=O)=C(O)[C@@H](N(C)C)[C@@H]3[C@@H](O)[C@@H]21` [Doxycycline hydrochloride] + CCCCNC(=O)OCC#CI [3-iodo-2-propynyl butylcarbamate (IPBC)] were, in that order, 77.2 ± 0.64% and 82.3 ± 1.6%.
The matching figures for `Cc1c(-c2ccccc2)oc2c(C(=O)OCCN3CCCCC3)cccc2c1=O` [Flavoxate hydrochloride] + CCCCNC(=O)OCC#CI [3-iodo-2-propynyl butylcarbamate (IPBC)]: 96.1 ± 9.4% and 106 ± 1.9%.
Consider `Cc1onc(-c2ccccc2Cl)c1C(=O)N[C@@H]1C(=O)N2[C@@H]1SC(C)(C)[C@@H]2C(=O)O` [Cloxacillin sodium salt] + CCCCNC(=O)OCC#CI [3-iodo-2-propynyl butylcarbamate (IPBC)], for which the growth yield reads like this: (40 h) 85.46 ± 0.32%; (72 h) 94.5 ± 1.4%.
The matching figures for `N[C@@H](C(=O)N[C@@H]1C(=O)N2C(C(=O)O)=C(Cl)CC[C@H]12)c1ccccc1` [Loracarbef] + CCCCNC(=O)OCC#CI [3-iodo-2-propynyl butylcarbamate (IPBC)]: 84.34 ± 0.48% and 89 ± 0.94%.
The like results for `C#Cc1cccc(Nc2ncnc3cc(OCCOC)c(OCCOC)cc23)c1` [Erlotinib] + CCCCNC(=O)OCC#CI [3-iodo-2-propynyl butylcarbamate (IPBC)] were, in that order, 98.2 ± 11% and 99.3 ± 3%.
The like results for `CC(C)Nc1cccnc1N1CCN(C(=O)c2cc3cc(NS(C)(=O)=O)ccc3[nH]2)CC1` [Delavirdine] + CCCCNC(=O)OCC#CI [3-iodo-2-propynyl butylcarbamate (IPBC)] were, in that order, 95.5 ± 8.4% and 97.7 ± 3.8%.
As for `NS(=O)(=O)c1cc2c(cc1Cl)NC(C(Cl)Cl)NS2(=O)=O` (stereo not given) [Trichlormethiazide] + CCCCNC(=O)OCC#CI [3-iodo-2-propynyl butylcarbamate (IPBC)], the growth yield (40 h) worked out at 97.5 ± 16% and the growth yield (72 h) amounted to 97.3 ± 12%.
The like results for `COc1ccccc1Oc1c(NS(=O)(=O)c2ccc(C(C)(C)C)cc2)nc(-c2ncccn2)nc1OCCO` [Bosentan] + CCCCNC(=O)OCC#CI [3-iodo-2-propynyl butylcarbamate (IPBC)] were, in that order, 117 ± 2.4% and 114 ± 5.8%.
For `Nc1ccccc1S(N)(=O)=O` [2-Aminobenzenesulfonamide] + CCCCNC(=O)OCC#CI [3-iodo-2-propynyl butylcarbamate (IPBC)], the growth yield is 88.79 ± 0.48% (40 h) and 92.9 ± 2.7% (72 h).
For `CN(C)CCC=C1c2ccccc2COc2ccccc21` [Doxepin hydrochloride] + CCCCNC(=O)OCC#CI [3-iodo-2-propynyl butylcarbamate (IPBC)], the growth yield runs as follows: (40 h) 73.7 ± 2.2%; (72 h) 92.4 ± 0.94%.
Consider `CCC[C@@H]1C[C@@H](C(=O)N[C@@H]([C@H]2O[C@H](SC)[C@H](O)[C@@H](O)[C@H]2O)[C@H](C)Cl)N(C)C1` [Clindamycin hydrochloride] + CCCCNC(=O)OCC#CI [3-iodo-2-propynyl butylcarbamate (IPBC)], for which the growth yield reads like this: (40 h) 90.7 ± 8.4%; (72 h) 96.2 ± 5.3%.
The like results for `O=C(N[C@H](CO)[C@H](O)c1ccc([N+](=O)[O-])cc1)C(Cl)Cl` [Chloramphenicol] + CCCCNC(=O)OCC#CI [3-iodo-2-propynyl butylcarbamate (IPBC)] were, in that order, 92.6 ± 6.8% and 92.7 ± 6.5%.
The matching figures for `C=C1/C(=C\C=C2/CCC[C@]3(C)[C@@H]([C@H](C)CCCC(C)C)CC[C@@H]23)C[C@@H](O)C[C@@H]1O` [Alfacalcidol] + CCCCNC(=O)OCC#CI [3-iodo-2-propynyl butylcarbamate (IPBC)]: 99.8 ± 3.5% and 104 ± 2.3%.
The like results for `Cc1ccc2c(c1)c1c3n2CCNC3CCC1` (stereo not given) [Pirlindole mesylate] + CCCCNC(=O)OCC#CI [3-iodo-2-propynyl butylcarbamate (IPBC)] were, in that order, 83.23 ± 0.32% and 97.64 ± 0.94%.
As to `CCN(CC)CCNC(=O)c1cc(Cl)c(N)cc1OC` [Metoclopramide monohydrochloride] + CCCCNC(=O)OCC#CI [3-iodo-2-propynyl butylcarbamate (IPBC)], the growth yield (40 h) amounted to 86.7 ± 4.1% and the growth yield (72 h) came out at 95.4 ± 3.4%.
For `CCOc1ccc2ccccc2c1C(=O)N[C@@H]1C(=O)N2[C@@H]1SC(C)(C)[C@@H]2C(=O)O` [Nafcillin sodium salt monohydrate] + CCCCNC(=O)OCC#CI [3-iodo-2-propynyl butylcarbamate (IPBC)], the growth yield is, setting by setting: (40 h) 101 ± 14%; (72 h) 98 ± 9.2%.
Take `Cn1cnc2c1c(=O)[nH]c(=O)n2C` [Theobromine] + CCCCNC(=O)OCC#CI [3-iodo-2-propynyl butylcarbamate (IPBC)]: the growth yield reads like this: (40 h) 95.8 ± 8.7%; (72 h) 98.5 ± 5.3%.
`C[N+]1(C)CCOC(O)(c2ccc(-c3ccc(C4(O)C[N+](C)(C)CCO4)cc3)cc2)C1` (stereo not given) [Hemicholinium bromide] + CCCCNC(=O)OCC#CI [3-iodo-2-propynyl butylcarbamate (IPBC)]: the growth yield (40 h) worked out at 19.1 ± 0.64%.
As for `Oc1c(Cl)cc(Cl)c(Cl)c1Cc1c(O)c(Cl)cc(Cl)c1Cl` [Hexachlorophene] + CCCCNC(=O)OCC#CI [3-iodo-2-propynyl butylcarbamate (IPBC)], the growth yield by setting is: (40 h) 19.4 ± 4.8%; (72 h) 80.2 ± 2.6%.
Consider `Cc1c(N(C)C)c(=O)n(-c2ccccc2)n1C` [Amidopyrine] + CCCCNC(=O)OCC#CI [3-iodo-2-propynyl butylcarbamate (IPBC)], for which the growth yield came to 100 ± 4.3% (40 h) and 101 ± 4.8% (72 h).
For the compound `COc1ccc(/C=C/C(=O)Nc2ccccc2C(=O)O)cc1OC` [Tranilast] + CCCCNC(=O)OCC#CI [3-iodo-2-propynyl butylcarbamate (IPBC)], the growth yield was 67.8 ± 1.4% (40 h) and 84.84 ± 0.1% (72 h).
The matching figures for `CCOC(=O)C1=C(COCCN)NC(C)=C(C(=O)OC)C1c1ccccc1Cl` (stereo not given) [Amlodipine] + CCCCNC(=O)OCC#CI [3-iodo-2-propynyl butylcarbamate (IPBC)]: 60.2 ± 3.3% and 99.4 ± 1.9%.
The matching figures for `CN1[C@@H]2CC[C@H]1C[C@@H](OC(=O)c1c[nH]c3ccccc13)C2` [Tropisetron hydrochloride] + CCCCNC(=O)OCC#CI [3-iodo-2-propynyl butylcarbamate (IPBC)]: 101.5 ± 0.16% and 102%.
The matching figures for `Cc1cccc(C)c1OCC(C)N` (stereo not given) [Mexiletine hydrochloride] + CCCCNC(=O)OCC#CI [3-iodo-2-propynyl butylcarbamate (IPBC)]: 95.1 ± 3.6% and 100.8 ± 0.32%.
With `Nc1nc(CC(=O)Nc2ccc(CCNC[C@H](O)c3ccccc3)cc2)cs1` [Mirabegron] + CCCCNC(=O)OCC#CI [3-iodo-2-propynyl butylcarbamate (IPBC)], the growth yield (40 h) was 111 ± 9.8% and the growth yield (72 h) worked out at 110 ± 4.3%.
Take `NC[C@@H]1O[C@H](O[C@H]2[C@@H](O)[C@H](O[C@@H]3[C@@H](O)[C@H](N)C[C@H](N)[C@H]3O[C@H]3O[C@H](CO)[C@@H](O)[C@H](O)[C@H]3N)O[C@@H]2CO)[C@H](N)[C@@H](O)[C@@H]1O` [Paromomycin sulfate] + CCCCNC(=O)OCC#CI [3-iodo-2-propynyl butylcarbamate (IPBC)]: the growth yield is 84 ± 7.2% (40 h) and 86.5 ± 2.2% (72 h).

These data come from the supplement of paper PMC8007513.
